We go through 29 molecules from the supplement of paper PMC12632987.

First the molecules themselves.
B1: LC3A_28_669 (protein)
chain: GSLKEALEKKLAEAKKAAAAGEPTVFVIEVPGDATEEDIEYFIEKLEEIAELLKNVKGSAIIVDLSGKLSEEHRNKIIDKAEEINKKYPNVTVIIALEDE
B2: LC3A_45_1993 (protein)
chain: MYKATVDILVPKELAEEVYEAVKEIAEELVKESGGKVKVDWETLEKSYEATKDEEEVLLEVNIYAEDKDLALDAADRLEERLHEKFGDSIASIISVEEVP
B3: LC3A_45_2002 (protein)
chain: MWEITVDLLGPKAKVERAVALIREAAAAFSAATGVTVEVDLSEAEEALASEKNEEEVFVTVTIRLAGDQADADALVQALDAVHAQVGPDVAMVISVEEVP
B4: LC3A_3_1598 (protein)
chain: MEELVEELLKKLKEAGLPEEVLKAARKVLEALAEKGFEEAAKTLAEELLELKDAPPEDLLDMLEEILRKVETEDLNEEEVIELIKEEARVLREGLEIEEL
B5: LC3A_132_319 (protein)
chain: MEEKYKKILEEIKKKIEEARKNIDDEEKVKKLVEEIKKLLKEAEKILTPEQVAELAEEAARRLDEVSREAEKAGKENVALIFDGAAVEAAAIAIRAEEKI
B6: LC3A_3_1405 (protein)
chain: FEEIEKEIIETLKSMGASEEVIEAAKKVVKKLKERGYLEAAKKLLEEVKKLKNASDEILLWFFEEVLKYLEENDDSEEEVVKKIEEFAKIAKNANEIEEL
B7: LC3A_3_1694 (protein)
chain: MEELVAEALAVAEENGWSPETLAALRRLLEALAARGYEEAIKTLLEELKKLKDASSEDLRWMFEELLHLLETEDLDEEELTEAIKEEARVLKEDKEIEEL
B8: LC3A_3_1890 (protein)
chain: LEEEVEETLELLREKGASEETIELFLEAVELLKERGYEEALKTLIEEVRELADAPDEILLDFLKEVLEVLKNEDLSEEELIKRIKELARLARNEAEIEEL
B9: LC3A_28_963 (protein)
chain: SALEKQLEAVLAEAEKAAAAGEAKVFTINVPGTADEADIERVIATIKRIAELLKDVKGSAIIVSVDAGVKQEHIDRLADTLEEIEKKYPNITAILALDED
B10: LC3A_28_1143 (protein)
chain: SPIVEKVKKKIDESYEETKDEKEVFLDVNIEEEITVEEAKEIMDYVEEVVKKLKDKEKISVVVTFDKPVSQEVLNTIADKGEEIEKKFPNVDVIIALPED
B11: LC3A_free_46_2361 (protein)
chain: TKISIDFLAKGKTEEEAKEFAKELEERIKEAAKEAGAEVKIETKIEKDEEGDIFINVDIEIKAPNREIEEKAVQKILDIVDELSKEKNLAAIVSIEYVEP
B12: LC3A_28_895 (protein)
chain: SAAIKKAQAALAEAKAALAAGSTEPLVLEVDAPSTEEDVDKFLELLEEIAKVGDQRPGVAIVIDVDSSVSQENIDKVIDKAEELEKKYPNVTIIIALPED
B13: LC3A_3_1825 (protein)
chain: MEKEKEELIKALKEAGHSEETIEAVEETLKALLEKGYEEAAKTFIELVKEMLDLPSELLLELAKDVKELVESEDLSEEELKEKIKELAKLYRNESEIIEL
B14: LC3A_free_46_2298 (protein)
chain: YIVEIDVDLYGLTKEQAEEFVKELKERLKEIAKKYNVKVKIKVKIEKNEDGTYYVEIDIEVEAETLELAKEVMQEIIDTIEELAEKYGASYIISYEIKEA
B15: LC3A_28_870 (protein)
chain: SAIEKQVKAVKEELEKQAKEGEDAVVTVEITSEMSLEEAVELMNRVLEVAKEYVKKTGLKVTIVIDYDGDQETLNAIADLAEKAEKENPKITVIIALPEE
B16: LC3A_3_1393 (protein)
chain: FEEIKKEAEKTLKEFGRSEEVIKKAKEVLDALAKKGYLEAAKTFLEELKEMKDLSDEILLWFLEEVLRYIEENDASEEEVVKFIKEEARTAKNEGEIEEL
B17: LC3A_28_851 (protein)
chain: SKVDEQIAAARAELEAAAAAGEPVVLELTVKGDFTDEEIDKFIEGLKELAALADSHGGHAIVINIEEGVKDEHIDKIMETAEEIEKKYPKVTVIIALPEN
B18: LC3A_28_1150 (protein)
chain: SAMVEEAKAQIEKDAEEDKNEEEVYLNVTIKKGITLEEAKEIMDHVEEVVEKLKDKKKIYIVVDFEEPISQEVLDLILERSERIEEKFPNVSVIIALHED
B19: LC3A_147_477 (protein)
chain: ARVDIDALVKDEEAAEELVERVREKVEELRERGIEVEVEIEVEQLDPDTWYVRIEIEIEAETEEEEREAADEVVDYIDEFIEENKDRILASIISVEFIEE
B20: LC3A_28_1098 (protein)
chain: MELEESLEEALKKAREAAEAGEEVVITIKVPETATEEDLEKLKETLEEIAEITKDLPRVTVVIDLDGEGAEEKANILGEFAEKLEKKYPNLTVIIALPED
B21: LC3A_16_526 (protein)
chain: KEEAKKTLELLKKAYEALDTDEEAFIAELEKIDPALAAQARAALAQPDAKAKHYELLAQKLEEFLKKYKDELTEEEKAEVENMATAAEVESDLELLKLEE
B22: LC3A_free_46_2353 (protein)
chain: VKAEIDIDLLHKDKEVLEKAVEEIKKAAEEIAKKYGLKVKIEEEISKLPDGSYYAEIKIILEGETEEDLKAAVNELINEIEKIAKKYDVAAIISYEIIKE
B23: LC3A_28_1124 (protein)
chain: SKRKEEWEKAFEEAKELAEKGEYVVAEFKATGEDTEEDVKYLIEILEKAAEYLSKKGQSSILLDIDGKLKPELRDYVISEADKIEKKYPSVNIVIALEED
B24: LC3A_free_39_2230 (protein)
chain: MEEEVEKLIEEVAKESGIDLEYVREKIEEIQKVAELSLEEILEIIKELLKAVKEGADAKEILEEALEIAKELKKEGKSPEEILEEILELIRDYRNLIPLD
B25: LC3A_17_541 (protein)
chain: SEELRRELERLLREARALVERVAPHLPEAAAAARRRLEEAERLLEAGRLREAAELLAELAREMAAAIDATEWPDPLEREVLAMEFEGLAVEAELLLLKLE
B26: LC3A_free_39_2175 (protein)
chain: SEEELEEAEEELLELAEEEGEETLEIVEEILELIEGNLELVKLLVEGLKKIKEEGGDVKEAVEEILEKIKELKEAGKSMEEILEEVKKIIEDFLNLIPLD
B27: LC3A_3_1657 (protein)
chain: MEELLKETLEYLKKKGKSEETLKAVREALEALIEKGYENAAKTFAELLKELAHLSDEILKEMAEEVLELVKTSNLSEEEMTEEIKKIAKTALNESEIIEL
B28: LC3A_3_1646 (protein)
chain: PEEKVKELEEELKKAGHNEETIEAFRETAEALIEKGYYEALEVLIEEVRKLKDLPSDILLAMLEDILETVKTEDLSEEELIEKIKEEARIARSEGEIIEL
B29: LC3A_147_440 (protein)
chain: YRVDVDIDIIVENAEEEVLKRFEELKKELEAKGYKVELEIEVEELEEGVSFINIRITIEAETREEAEAAAQMVVDAVDELEKELKDKILASIISVDIEEL

Whole data set: some 2,300 sequences, median “median log2 fold change of GCK-ALFA target abundance (FLAG IP / Myc IP barcode read proportion)” near 0.095, cut for the lowest 2% near -0.47. Some of the results follow.

This test concerns the target MAP1LC3A, Q9H492. Put plainly: median log2 fold change of GCK-ALFA target abundance (FLAG IP / Myc IP barcode read proportion) (log2 ratio); each designed protein is fused to an ALFA-tag nanobody in HEK293 cells to bring the named protein to FLAG-tagged glucokinase (GCK); Myc marks an untargeted standard; higher = target protein stabilised (more abundant). As to conditions: target protein: 3xFLAG-MCP-GCK-ALFA reporter; HEK293 landing pad (RPLP). Put shortly:
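An ALFA-nanobody-fused binder library was recombined into HEK293 landing-pad cells and induced with 2 μg mL^−1 doxycycline. Cells were transfected with a plasmid expressing a FLAG-tagged target and a Myc-tagged standard. After 48 h, lysates underwent anti-FLAG and anti-Myc immunoprecipitation, and circular RNA barcodes were reverse transcribed, amplified and sequenced. Target abundance is the per-binder median log2 ratio of FLAG to Myc barcode read proportions. Barcodes needed ≥10^−7 proportion in both replicates, binders ≥3 barcodes per replicate, and a 10^−6 pseudocount was added; the two replicates were pooled.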
B1: the “median log2 fold change” value was -0.167. For the molecule B2, the “median log2 fold change” value was -0.314.

For the molecule B3, the “median log2 fold change” value is -0.0111. With B4 the figure was 0.257; with B5, 0.217; with B6, 0.273.

In the case of B7, the “median log2 fold change” value was 0.235.

Consider B8, for which the “median log2 fold change” value was 0.228. As to B9, the “median log2 fold change” value was determined as 0.182. With B10 the figure was 0.379. Turning to B11, the “median log2 fold change” value was found to be 0.0603. In the case of B12, the “median log2 fold change” value was -0.305.

On to B13, for which the “median log2 fold change” value was found to be 0.422. Consider B14, for which the “median log2 fold change” value is -0.318. The value for B15 was -0.164; that for B16 was 0.556; that for B17 was -0.464. B18: the “median log2 fold change” value is -0.157.

On to B19, for which the “median log2 fold change” value was -0.34. With B20 the figure was 0.224; with B21, 0.154. The value for B22 was -0.0249; that for B23 was -0.453; that for B24 was 0.218.

As for B25, the “median log2 fold change” value worked out at 0.0466. With B26 the figure was 0.302. With B27, the “median log2 fold change” value came to 0.182. On to B28, for which the “median log2 fold change” value amounted to 0.127. B29: the “median log2 fold change” value is -0.182.
